Measured values: PubChem BioAssay AID686979 (National Center for Advancing Translational Sciences (NCATS), 2013)
Hit rate of the full screen: of about 420,000 compounds, about 50,000 (12%) were called active. Inconclusive means that the source gave no clear call. Such entries were picked first, then a sample of the others. The call rests on the fitted dose curve; in most records, active means well fitted inhibition curve with a large enough effect; inconclusive means small, poorly fitted or top-dose-only effect; inactive means flat fitted curve, though single readings scatter. Potencies of inconclusive entries are left out as doubtful fits.

assay: qHTS for Inhibitors of human tyrosyl-DNA phosphodiesterase 1 (TDP1): qHTS in cells in presence of CPT; settings: chicken DT40 Tdp1-/-;hTDP1 cells + 20 nM CPT, ATP luminescence, 48 h; activity change, negative = growth inhibition: at 46.2 µM (top of the series); further: nearly all actives have a fitted effect of over 55% in size
How it was run: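 Chicken DT40 Tdp1-/- cells stably complemented with human TDP1 were seeded at 400 cells/well in medium containing 20 nM camptothecin, exposed to pin-transferred compounds, and grown at 37 °C for at least 48 hr. Viability was read as ATP luminescence.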
On the % scale 0 is the no-effect control and ±100 the full control effect; potency means the concentration at half of the fitted maximal effect; tags describe the fitted curve by direction and shape.

Compound	Potency	activity change, negative = growth inhibition
COC(=O)c1cccc(NC(=O)c2cc3ccccc3o2)c1	inconclusive [inhibitor, single point]	
CN(CC(=O)NCc1ccc(F)cc1)S(=O)(=O)c1ccc2[nH]c3c(c2c1)CCCC3	active: 20.6 µM	
COc1ccc(CC(=O)O/N=C(\N)Cc2ccc([N+](=O)[O-])cc2)cc1	inactive	
COc1ccc(S(=O)(=O)NC(=O)C2(C)CCN2C(=O)C2(c3ccccc3)CC2)cc1 (centres undefined)	inactive	
CCOC(=O)C1CCN(S(=O)(=O)c2cccc(-c3cn4ccccc4n3)c2)CC1		inconclusive: -31.7% [inhibitor]
COc1ccc(-c2ccc(-c3noc(C(C)C)n3)c(OC)n2)cc1	inconclusive [inhibitor, single point]	
CC1CC(OCC(O)CN2CCN(Cc3ccccc3)CC2)CC(C)(C)C1 (centres undefined)	inconclusive [inhibitor, single point]	
C=CCn1c(=NC(=O)c2cccs2)sc2cccc(OC)c21	inconclusive [inhibitor, single point]	
O=C(CCOc1ccccc1)Nc1nnc(-c2ccc3c(c2)OCCO3)o1	inconclusive [inhibitor, single point]	
Cc1cc(C(=O)N2CCN(c3ncccn3)CC2)sc1-c1ccccc1	inconclusive [inhibitor, single point]	
CCn1cc(S(=O)(=O)c2ccc(C)cc2)c(=O)c2cc(OC)ccc21	inactive	
CCN(CC)S(=O)(=O)c1cccc(-c2nnc(SCCCC(=O)c3ccc(F)cc3)o2)c1	inconclusive [inhibitor, single point]	
CCOc1ccc(-n2c(C)nc3cc(C(=O)NCc4ccco4)ccc32)cc1	inconclusive [inhibitor, single point]	
COc1ccc(OC)c(NC(=O)c2[nH]c(C)c(C(C)=O)c2C)c1	inactive	
Cc1cccn2c(=O)cc(CSc3nnc(NC(=O)COc4ccccc4)s3)nc12	inactive	
O=C(c1ccc2c(c1)N(Cc1cccc(F)c1)C(=O)c1ccccc1S2)N1CCC2(CC1)OCCO2	inconclusive [inhibitor, single point]	
C[C@H](CO)N1C[C@H](C)[C@@H](CN(C)S(=O)(=O)c2ccc(F)cc2)Oc2ccc(NC(=O)CCC(F)(F)F)cc2C1=O	inconclusive [inhibitor, single point]	
CCOc1cc(/C=C2/SC(=S)N(CC3CCCO3)C2=O)ccc1O (centres undefined)	inconclusive [inhibitor, single point]	
COc1ccc(OC)c(-n2c(N)c(C(=O)NCC3CCCO3)c3nc4ccccc4nc32)c1 (centres undefined)	inconclusive [inhibitor, single point]	
CCCCn1c(N)c(N(CC(C)C)C(=O)c2ccncc2)c(=O)[nH]c1=O	inactive	
Cc1c(Cl)cccc1NC(c1ccc(F)cc1)c1nnc(-c2ccccc2)o1 (centres undefined)	inconclusive [inhibitor, single point]	
CCOc1ccc(S(=O)(=O)NCCC(=O)Nc2ncccc2C)cc1	inactive	

Compound	Potency	activity change, negative = growth inhibition
CS(=O)(=O)Nc1ccc([N+](=O)[O-])cc1Oc1ccccc1	inconclusive [inhibitor, partial curve, poor fit]	
COc1ccc([C@H]2CC(=O)C=C(c3ccc(-c4ccccc4)c(F)c3)C2)cc1OC	inconclusive [inhibitor, single point]	
COc1ccc(C)cc1NS(=O)(=O)c1ccc2c(c1)NC(=O)C(C)S2 (centres undefined)	inconclusive [inhibitor, single point]	
COc1cc(CC(=O)Nc2ncc(C)s2)cc(OC)c1OC	inconclusive [inhibitor, partial curve]	
CCCCCOc1ccc(CSc2n[nH]c(C)n2)cc1	inconclusive [inhibitor, single point]	
CCN(Cc1cc2cc(C)ccc2[nH]c1=O)C(=O)c1cccc([N+](=O)[O-])c1	inactive	
O=C(CNCC1CCCCC1)Nc1ccccc1N1CCCCC1	inconclusive [inhibitor, single point]	
CCOC(=O)[C@]12CCC=C1N(CCC1=CCCCC1)C(=O)[C@H](CC(=O)NCC1CCCCC1)C2	active: 23.1 µM	
CCCCCCC1CCC(C(=O)Nn2c(C)nc3ccccc3c2=O)CC1 (centres undefined)	inconclusive [inhibitor, single point]	
CCOC(=O)c1c(NC(=O)c2ccco2)sc2c1CCCC2	inconclusive [inhibitor, single point]	
COc1ccc(NC(=O)c2sc(N3CCOCC3)nc2-c2ccccc2)c(OC)c1	inconclusive [inhibitor, single point]	
O=C(CSc1ccc2ccccc2n1)N/N=C/c1ccc(O)cc1	inconclusive [inhibitor, single point]	
COCCn1c(=O)c(-c2ccc(Cl)cc2)nc2cnc(N3CCOCC3)nc21	inactive	
Cc1ccc(C)c(CN2CCCN(CC(=O)Nc3ccc(C)c(C)c3)S2(=O)=O)c1	inconclusive [inhibitor, single point]	
CCn1c(CNC(=O)C23CC4CC(CC(C4)C2)C3)nnc1SC	inactive	
O=S(=O)(c1ccc(OCC(O)CNC23CC4CC(CC(C4)C2)C3)c(Cl)c1)N1CCOCC1 (centres undefined)	inconclusive [inhibitor, partial curve, poor fit]	
Cc1onc(-c2ccccc2)c1-c1csc(N/N=C/c2ccccc2)n1	inconclusive [inhibitor, single point]	
CC(O)CN(CC(C)O)c1ccc2c(c1)Cc1cc([N+](=O)[O-])ccc1-2 (centres undefined)	active: 18.4 µM	
O=C(Cc1cn(Cc2cccc(Cl)c2)c2ccccc12)N1CCCCCC1	inconclusive [inhibitor, partial curve]	
O=C1C2CCC(C2)C1CN1CCOCC1 (centres undefined)	inactive	
CN1CCN(NC(=O)c2ccc(Cl)s2)CC1	inactive	
Cc1cn(C2CC(O)C(CO)O2)c(=O)n(Cc2ccccc2)c1=O (centres undefined)	inconclusive [inhibitor, single point]	
